The values below come from paper PMC2933790.

In general, stoichiometry N refers to a count of units in the complex or per binding partner.

This assay concerns the target T1, properdin (human), P27918.
T1 chain: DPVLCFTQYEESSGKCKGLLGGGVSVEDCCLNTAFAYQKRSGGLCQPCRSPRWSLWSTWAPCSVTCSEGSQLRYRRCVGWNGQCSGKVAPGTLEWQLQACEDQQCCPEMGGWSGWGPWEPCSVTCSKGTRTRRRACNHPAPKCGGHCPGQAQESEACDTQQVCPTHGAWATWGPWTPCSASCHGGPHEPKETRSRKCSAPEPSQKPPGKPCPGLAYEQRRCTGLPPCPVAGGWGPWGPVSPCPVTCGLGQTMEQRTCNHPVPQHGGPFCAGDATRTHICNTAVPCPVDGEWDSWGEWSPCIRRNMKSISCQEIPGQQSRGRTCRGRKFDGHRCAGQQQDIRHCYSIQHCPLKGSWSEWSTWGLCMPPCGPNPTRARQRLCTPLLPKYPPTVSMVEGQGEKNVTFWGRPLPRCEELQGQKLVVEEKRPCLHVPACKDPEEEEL
Description: SEC. To be noted: remark: other sources report otherwise.

Values joined by “and” are separate entries in the source; they are usually repeats but may differ in a detail not shown here. Equal entries are not always repeated.

B1: properdin, P27918 28-469 (natural protein)
chain: T1 chain
With B1, the stoichiometry N was 2 and 3 and 4.
